Test results from article PMC11039692, “SRY-Box transcription factor 9 triggers YAP nuclear entry via direct interaction in tumors” (Signal Transduction and Targeted Therapy, 2024).
These are yes or no findings as the source states them, for the method shown. For some of these results: Binding seen in cells or lysates may run through a third protein. Some entries that bind do so weakly or less than the wild type.

Amino acid sequences for entries named in this document (tags omitted). A change or cut given only in a name is not applied to a line headed by its entry. Chains listed by the source or under a name are the forms on record and can include a tag or linker. Residues count along the entry.
UniProt Q15561: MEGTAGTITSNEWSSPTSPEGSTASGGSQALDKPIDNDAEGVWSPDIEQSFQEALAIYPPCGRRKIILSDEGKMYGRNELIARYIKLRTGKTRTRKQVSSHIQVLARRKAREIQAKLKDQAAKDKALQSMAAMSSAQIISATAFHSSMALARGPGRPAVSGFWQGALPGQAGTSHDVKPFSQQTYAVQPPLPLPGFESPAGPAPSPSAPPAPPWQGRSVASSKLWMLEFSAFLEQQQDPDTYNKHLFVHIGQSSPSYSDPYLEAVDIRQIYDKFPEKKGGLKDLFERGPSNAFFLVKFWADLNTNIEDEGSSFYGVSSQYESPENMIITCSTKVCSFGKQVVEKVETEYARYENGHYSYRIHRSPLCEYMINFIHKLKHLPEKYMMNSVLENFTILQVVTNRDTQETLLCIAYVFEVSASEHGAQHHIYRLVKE
UniProt P48436: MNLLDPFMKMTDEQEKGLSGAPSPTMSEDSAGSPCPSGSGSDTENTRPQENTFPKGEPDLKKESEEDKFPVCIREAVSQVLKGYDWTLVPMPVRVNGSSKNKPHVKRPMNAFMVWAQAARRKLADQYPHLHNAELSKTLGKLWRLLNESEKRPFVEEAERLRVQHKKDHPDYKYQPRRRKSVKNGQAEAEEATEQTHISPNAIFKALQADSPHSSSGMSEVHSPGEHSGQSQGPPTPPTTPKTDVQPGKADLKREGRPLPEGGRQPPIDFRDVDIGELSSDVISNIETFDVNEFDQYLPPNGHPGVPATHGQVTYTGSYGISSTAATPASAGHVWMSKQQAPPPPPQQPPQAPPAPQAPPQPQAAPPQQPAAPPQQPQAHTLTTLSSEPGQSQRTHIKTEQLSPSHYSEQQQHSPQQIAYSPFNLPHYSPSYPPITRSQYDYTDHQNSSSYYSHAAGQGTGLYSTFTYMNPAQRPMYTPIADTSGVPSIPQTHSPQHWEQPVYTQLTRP
SOX9-HMG domain (aa 98–181): residues 98-181 of P48436
Pep-S-A1 (cell-penetrating peptide Pep, di-glycine linker, S-A1) (P48436, form named): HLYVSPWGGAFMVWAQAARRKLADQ
FLAG-SOX9 Δ176–210 (P48436, form named): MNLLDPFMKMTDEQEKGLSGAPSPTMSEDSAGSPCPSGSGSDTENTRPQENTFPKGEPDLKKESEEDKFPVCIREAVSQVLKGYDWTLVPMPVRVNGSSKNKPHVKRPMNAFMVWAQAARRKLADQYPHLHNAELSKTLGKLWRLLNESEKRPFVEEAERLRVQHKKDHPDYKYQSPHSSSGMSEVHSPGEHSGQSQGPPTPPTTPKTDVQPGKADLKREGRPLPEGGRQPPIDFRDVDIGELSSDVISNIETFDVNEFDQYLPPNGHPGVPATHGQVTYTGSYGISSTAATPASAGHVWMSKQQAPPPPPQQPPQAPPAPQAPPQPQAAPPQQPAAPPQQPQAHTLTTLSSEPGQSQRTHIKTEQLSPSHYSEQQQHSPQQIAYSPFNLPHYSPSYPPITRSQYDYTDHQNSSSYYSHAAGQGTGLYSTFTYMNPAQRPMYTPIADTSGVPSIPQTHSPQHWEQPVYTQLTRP
UniProt Q99873: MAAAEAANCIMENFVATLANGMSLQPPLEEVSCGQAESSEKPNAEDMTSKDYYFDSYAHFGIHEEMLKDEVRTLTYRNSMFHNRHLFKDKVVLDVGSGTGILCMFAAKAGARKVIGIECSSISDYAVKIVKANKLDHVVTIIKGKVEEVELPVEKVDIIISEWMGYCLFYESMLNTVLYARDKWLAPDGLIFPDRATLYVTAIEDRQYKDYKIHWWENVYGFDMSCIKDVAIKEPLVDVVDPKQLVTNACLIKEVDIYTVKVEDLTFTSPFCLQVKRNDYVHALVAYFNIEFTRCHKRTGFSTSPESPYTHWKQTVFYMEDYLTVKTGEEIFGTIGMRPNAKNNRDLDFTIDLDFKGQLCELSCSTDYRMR

What was measured:
[1] = molecular target: Yes-associated protein (YAP), endogenous (human (endogenous in Huh-7)) (UniProt P46937); assay: proximity ligation; Duolink PLA with antibodies against SOX9 and YAP in Huh-7 cells with DOX-inducible mCherry-SOX9; DOX 1 μg/mL, cells fixed after DOX induction
[2] = molecular target: V5-YAP (human) (UniProt P46937); assay: co-IP; reciprocal: Huh-7 cells co-transfected with V5-YAP and FLAG-tagged SOX9 or mutants; immunoprecipitation with anti-FLAG beads or anti-V5 beads, immunoblot
[3] = molecular target: Yes-associated protein (YAP), endogenous (human (endogenous in Huh-7)) (UniProt P46937); assay: proximity ligation; PLA of exogenous SOX9 or its Δ94–126 deletion with YAP in cells (supplementary Fig. 4c)
[4] = molecular target: Yes-associated protein (YAP), endogenous (human (endogenous in Huh-7)) (UniProt P46937); assay: co-IP; immunoprecipitation with YAP antibody, immunoblot for PRMT1
[5] = molecular target: V5-YAP (human) (UniProt P46937); assay: co-IP; V5-IP from extracts of Huh-7 cells treated with Pep-peptides at the indicated concentrations for 24 h, immunoblot with SOX9 antibody; synthetic peptide added to cells as competitor; only the binder purified
[6] = molecular target: Yes-associated protein (YAP), endogenous (human (endogenous in Huh-7)) (UniProt P46937); assay: proximity ligation; PLA of YAP and SOX9 in HCC cells treated with Pep-peptides (supplementary Fig. 8a, b); synthetic peptide added to cells as competitor; only the binder purified
[7] = molecular target: V5-YAP S127A (human) (UniProt P46937); assay: co-IP; anti-V5 beads, extracts of Huh-7 cells transfected with V5-tagged YAP or mutants, immunoblot for SOX9; also with siPRMT1 co-transfected (interaction reduced)
[8] = molecular target: V5-YAP (human) (UniProt P46937); assay: as above
[9] = molecular target: Yes-associated protein (YAP), endogenous (human (endogenous in Huh-7)) (UniProt P46937); assay: proximity ligation; PLA of YAP and SOX9 in HCC cells treated with Pep-peptides (supplementary Fig. 8a, b); the pair that is blocked
[10] = molecular target: TEAD4, endogenous (human (endogenous in Huh-7)) (UniProt Q15561); assay: co-IP; extracts from Huh-7 cells, endogenous proteins
[11] = molecular target: Yes-associated protein (YAP), endogenous (human (endogenous in Huh-7)) (UniProt P46937); assay: as above
[12] = molecular target: Yes-associated protein (YAP), endogenous (human (endogenous in Huh-7)) (UniProt P46937); assay: proximity ligation; Duolink PLA with antibodies against SOX9 and YAP in fixed HEK-293A cells and various tumor cells, endogenous proteins
[13] = molecular target: V5-YAP (human) (UniProt P46937); assay: co-IP; V5-IP from extracts of Huh-7 cells treated with Pep-peptides at the indicated concentrations for 24 h, immunoblot with SOX9 antibody; the pair that is blocked
[14] = molecular target: SRY-Box transcription factor 9 (SOX9), endogenous (human (endogenous in Huh-7)) (UniProt P48436); assay: co-IP; extracts from Huh-7 cells, endogenous proteins
[15] = molecular target: SOX9-HMG domain (aa 98–181) (UniProt P48436); assay: MST; SOX9-HMG domain labelled with 25 nM RED-tris-NTA 2nd Generation dye, YAP peptide (aa 115–135) serially diluted; 50 mM Tris-HCl pH 7.4, 150 mM NaCl, 0.05% Tween-20; room temperature; both purified
[16] = molecular target: FLAG-SOX9 Δ176–210 (UniProt P48436); assay: co-IP; FLAG-IP from extracts of Huh-7 cells transfected with FLAG-SOX9 or its truncations, immunoblot for YAP
[17] = molecular target: FLAG-SOX9 (UniProt P48436); assay: as above
[18] = molecular target: Yes-associated protein (YAP), endogenous (human (endogenous in Huh-7)) (UniProt P46937); assay: co-IP; cytoplasmic and nuclear protein fractions of Huh-7 cells transiently transfected with SOX9, over time
[19] = molecular target: FLAG-YAP protein purified from SF9 (human) (UniProt P46937); assay: pull-down; 20 μM FLAG-YAP with 20 μM GST-SOX9 in the presence of FLAG beads overnight at 4 °C; washes in 20 mM Tris pH 8.0, 150 mM NaCl, 0.5% NP40, 0.5% TritonX-100, 1 mM DTT, 10% glycerol and once with 250 mM NaCl; immunoblot; both purified

## DOX-inducible mCherry-SOX9 (from UniProt P48436 1-509)
[1]
  binding: binds

## FLAG-SOX9 (from UniProt P48436 1-509)
[2]
  binding: binds
[3]
  binding: binds

## PRMT1 (from UniProt Q99873 1-371) (enzyme)
[4]
  binding: binds

## Pep-S-A1 (cell-penetrating peptide Pep, di-glycine linker, S-A1) (from UniProt P48436 111-126)
[5]
  binding: binds
[6]
  binding: binds

## SRY-Box transcription factor 9 (SOX9), endogenous (from UniProt P48436 1-509)
[7]
  binding: binds
[8]
  binding: binds
[9]
  binding: binds
[10]
  binding: no binding
[11]
  binding: binds
[12]
  binding: binds
[13]
  binding: binds

## YAP asymmetrically dimethylated at Arg-124 (YAP-R124me2a), endogenous (from UniProt P46937 1-504)
[14]
  binding: binds

## YAP peptide (aa 115–135) with R124K (from UniProt P46937 115-135)
[15]
  binding: no binding

## Yes-associated protein (YAP), endogenous (from UniProt P46937 1-504)
[16]
  binding: binds
[17]
  binding: binds

## exogenous SOX9 (transiently transfected) (from UniProt P48436 1-509)
[18]
  binding: binds

## recombinant GST-SOX9 protein (from UniProt P48436 1-509)
[19]
  binding: binds
